Results from the supplement of paper PMC11417369.
This is one part of the list.

Each sequence was assayed on PfAP2-HC AP2 domain (GST-tagged) (assay: gcPBM binding intensity (ln(normalized median fluorescence intensity)); higher = stronger DNA binding).
How it was run: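 GST-fused DNA-binding domains of P. falciparum, expressed in E. coli, were applied at about 25 μg on average for 1 h to an Agilent 4 × 180k array of primer-extended double-stranded 36-bp intergenic genomic probes and negative controls. Binding intensity is the highest Masliner-normalised natural-log median intensity across replicate spots of either probe orientation, measured with Alexa488 anti-GST antibody and a 488 nm scan.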

Going from “TATATAATATAATGTAGTACATGTTTTATTTTTTAC [XGTACX_site7735]” to “ATAAAATACAAAGGGACACACATATGAGTCTACAAA [CACACA_site3092]”, the “gcPBM binding intensity (ln)” value rises from 9.69 to 10.4.

Going from “TAAACACATTATATATGTACATAATAAAAAAAAAAA [XGTACX_site7907]” to “AAGTTATACACATCAACACACACATACAACGTGGTG [CACACA_site8312]”, the “gcPBM binding intensity (ln)” value rises from 9.93 to 10.4.

Going from “CAAAATGATATGACAACACACAACCTATAGTAAGAC [CACACA_site1287]” to “TAATATATAATAAAGTGTACATATGCTTTATTATTA [XGTACX_site1920]”, the “gcPBM binding intensity (ln)” value falls from 10.3 to 9.64.

First: TGACGACATTTCTTATGTACTAATTTTTCTTCCTTT [XGTACX_site4391]
Second: TAAAAAAAGAAAAAAAGTACATGCTACTTTTATGAT [XGTACX_site7818]
The “gcPBM binding intensity (ln)” value of the first is higher: 9.68 for the first, 9.51 for the second.

Going from “TATAATAAATCAAATGCACACACACTAATAAAAAAA [CACACA_site7937]” to “GGAATATAAATACATACACACATATATATATATATA [CACACA_site4998]”, the “gcPBM binding intensity (ln)” value falls from 11.3 to 10.1.

First: TATATATTATATATATGTACTTATTTATTAATTTAT [XGTACX_site5253]
Second: ATATAAAATAAATAAGTGCAGATAAATTTATGTGAC [GTGCAC_site9504]
The “gcPBM binding intensity (ln)” value of the first is lower: 9.65 for the first, 10.2 for the second.

First: TGTGGTTTTTATAATTGTACATATATATAAATCTAT [XGTACX_site4766]
Second: TGTTGTTATAAAAAAAAAAAAAAAAAAAAAAAAAAA [GTGCAC_negctrl_site230]
The “gcPBM binding intensity (ln)” value of the first is higher: 9.77 for the first, 9.03 for the second.

First: ATGAATATTTACAATCTTATTATGTTCAAAATTAAT [CACACA_negctrl_site592]
Second: TACATGCTTATTTTAACACACAAATGGTAGTAATAA [CACACA_site766]
The “gcPBM binding intensity (ln)” value of the first is lower: 9.4 for the first, 9.69 for the second.

Compared with “TGAATGCTTTTATGCACACGTACAAAAATATTATAT [CACACA_site2668]”, “AATAAAAATAACCTAACATGCAAAAAAAAAAAAAAA [TGCATGCA_site718]” is lower in “gcPBM binding intensity (ln)” value: 9.61 for the first, 9.42 for the second.

Going from “GTCATTAAAAAAATATGTACTTAAATGTATGCATAT [XGTACX_site5951]” to “TTTATACTTTCAAAATGTACATATATATATATATAT [XGTACX_site6241]”, the “gcPBM binding intensity (ln)” value rises from 9.56 to 9.77.

Going from “ATTTCTCTATCGTAATGTACAAAAAAAAGGGAAAAG [XGTACX_site1335]” to “ATTGAAGGGAAATATATAATCATATTCAAAATAAAA [CACACA_negctrl_site728]”, the “gcPBM binding intensity (ln)” value falls from 9.61 to 9.59.

Compared with “CTAATCATAAAATATACACACACGGATACATTAAAT [CACACA_site2685]”, “TAATATATAATTTTATGTACATAATTATAAACCCAT [XGTACX_site919]” is lower in “gcPBM binding intensity (ln)” value: 10 for the first, 9.57 for the second.
